Measured values reported in PubChem BioAssay (NCATS).
Inconclusive means that the source gave no clear call. Such entries were picked first, then a sample of the others. For some of these results: Potencies beside an inconclusive call are fits to weak or partial responses and may not hold up. For some of these results: A note “side channel” means that the fit belongs to a control or component signal, not to the main read-out. Activity calls are given as the source filed them. Unless noted, calls follow the shape of the dose curve; as a rule, active = well fitted curve in the direction sought with a large enough effect; inconclusive = small, poorly fitted or top-dose-only effect, or another doubt; inactive = no such curve, though single readings can be large; an effect the other way counts as inactive or inconclusive.

Experiments:
[1] = NFAT Signaling Pathway (AID 444; active = well fitted curve in either direction with a large enough effect, not every such curve was filed as active; inconclusive = small, poorly fitted or top-dose-only effect, or another doubt;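 also: carbachol stimulus at about its EC50 of 1 µM final; % is scaled to controls: 0 for no effect and ±100 for the full control effect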); details: Jurkat NFAT-bla M1, carbachol, beta-lactamase ratio, 5 h; at 17.2 µM (top of the series) unless noted
Outline: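 Jurkat cells carrying an NFAT-driven β-lactamase reporter and co-transfected muscarinic M1 receptor were treated with compound plus carbachol (1 uM final, an EC50 level) for 5 h at 37 °C. CCF4 loading followed for 1 h at RT; 460/530 nm ratio gave %activity.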

[2] = biological target: Cytochrome P450 2C9 (Homo sapiens) (UniProt P11712); assay: qHTS Assay for Inhibitors and Substrates of Cytochrome P450 2C9 (AID 883); details: recombinant CYP2C9, luciferin-H luminescence, 60 min; activity change, negative = inhibition: at 57.1 µM (top of the series); also: potency is read from the fitted curve at half-maximal effect; nearly all actives have a fitted effect of over 60% in size
Chain of UniProt P11712 (P11712 whole entry, looked up): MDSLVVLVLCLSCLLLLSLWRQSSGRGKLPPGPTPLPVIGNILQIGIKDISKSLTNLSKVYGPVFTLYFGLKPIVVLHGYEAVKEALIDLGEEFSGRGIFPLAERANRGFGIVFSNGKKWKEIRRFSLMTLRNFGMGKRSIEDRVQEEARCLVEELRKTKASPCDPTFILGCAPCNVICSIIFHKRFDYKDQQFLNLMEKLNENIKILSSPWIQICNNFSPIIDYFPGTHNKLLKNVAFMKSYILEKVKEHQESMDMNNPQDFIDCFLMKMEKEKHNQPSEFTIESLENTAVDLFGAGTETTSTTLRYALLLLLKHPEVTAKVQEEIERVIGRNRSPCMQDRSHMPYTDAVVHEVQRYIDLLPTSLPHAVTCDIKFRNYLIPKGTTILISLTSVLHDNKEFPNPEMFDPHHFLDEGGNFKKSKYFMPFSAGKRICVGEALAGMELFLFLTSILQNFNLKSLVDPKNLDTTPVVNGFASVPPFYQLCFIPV
Outline: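 CYP2C9 deoxyluciferin hydroxylation, 37C, 60 min with NADPH regeneration; 10nM enzyme, 100uM Luciferin-H (KM). Glo detection reagent stopped reaction; luminescence normalized to sulphaphenazole (57uM) full inhibition.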

[3] = biological target: Cytochrome P450 2D6 (Homo sapiens) (UniProt P10635); assay: qHTS Assay for Inhibitors and Substrates of Cytochrome P450 2D6 (AID 891); details: recombinant CYP2D6, luciferin-ME EGE luminescence; activity change, negative = inhibition: at 57.1 µM (top of the series);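 also: luciferin methyl ether substrate demethylated by CYP2D6 with NADPH regeneration; potency is read from the fitted curve at half-maximal effect; nearly all actives have a fitted effect of over 60% in size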
Chain of UniProt P10635 (P10635 whole entry, looked up): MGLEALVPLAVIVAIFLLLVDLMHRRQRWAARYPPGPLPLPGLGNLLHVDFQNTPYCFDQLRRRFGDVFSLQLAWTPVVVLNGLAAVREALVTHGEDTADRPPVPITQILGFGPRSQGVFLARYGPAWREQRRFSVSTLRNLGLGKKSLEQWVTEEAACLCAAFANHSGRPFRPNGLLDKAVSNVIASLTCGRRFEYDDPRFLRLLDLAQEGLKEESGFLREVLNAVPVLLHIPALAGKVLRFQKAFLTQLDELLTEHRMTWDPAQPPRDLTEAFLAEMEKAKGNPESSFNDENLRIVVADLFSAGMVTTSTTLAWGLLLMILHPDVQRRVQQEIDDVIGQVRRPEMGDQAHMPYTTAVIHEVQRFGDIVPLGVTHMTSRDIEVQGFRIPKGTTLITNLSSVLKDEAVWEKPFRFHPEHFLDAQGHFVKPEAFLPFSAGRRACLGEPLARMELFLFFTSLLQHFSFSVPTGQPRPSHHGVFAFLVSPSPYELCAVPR
Outline: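 Luminescent read-out of luciferin formed by 5 nM human CYP2D6 demethylating 30 uM Luciferin-ME EGE (Km level) over 60 min at room temperature after NADPH regeneration addition. Data normalized to full inhibition by 1.43 uM quinidine.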

[4] = biological target: Cytochrome P450 3A4 (Homo sapiens) (UniProt P08684); assay: qHTS Assay for Inhibitors and Substrates of Cytochrome P450 3A4 (AID 884); also: potency is read from the fitted curve at half-maximal effect; nearly all actives have a fitted effect of over 50% in size
Chain of UniProt P08684 (P08684 whole entry, looked up): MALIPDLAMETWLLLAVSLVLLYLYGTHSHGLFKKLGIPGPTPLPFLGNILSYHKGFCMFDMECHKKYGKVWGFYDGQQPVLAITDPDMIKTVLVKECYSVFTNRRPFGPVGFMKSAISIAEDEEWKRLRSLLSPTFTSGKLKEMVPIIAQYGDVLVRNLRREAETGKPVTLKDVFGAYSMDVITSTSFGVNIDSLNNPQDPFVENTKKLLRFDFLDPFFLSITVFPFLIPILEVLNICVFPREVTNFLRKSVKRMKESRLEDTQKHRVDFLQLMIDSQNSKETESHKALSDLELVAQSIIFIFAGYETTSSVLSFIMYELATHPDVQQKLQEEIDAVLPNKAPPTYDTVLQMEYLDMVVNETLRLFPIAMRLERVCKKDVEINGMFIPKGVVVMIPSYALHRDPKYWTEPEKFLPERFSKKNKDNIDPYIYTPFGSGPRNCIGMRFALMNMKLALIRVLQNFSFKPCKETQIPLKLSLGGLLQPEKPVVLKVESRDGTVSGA
Outline: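 Luminescent readout of luciferin produced by CYP3A4 (20 nM) dealkylation of Luciferin-PPXE, 25 uM (its KM). NADPH-driven reaction ran 60 min at RT after 10 min compound preincubation; data scaled to 57 uM ketoconazole as 100% inhibition.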

[5] = biological target: Cytochrome P450 3A4 (Homo sapiens) (UniProt P08684); assay: qHTS Assay for Activators of Cytochrome P450 3A4 (AID 885); also: nearly all actives have a fitted effect of over 65% in size; also: potency is read from the fitted curve at half-maximal effect
Outline: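 Activators are scored by enhanced luminescence from CYP3A4 conversion of luciferin-PPXE (25uM, equal to KM) to luciferin, after 60 min at RT with an NADPH-regenerating system.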

[6] = qHTS Assay for Identification of Small Molecule Agonists for Hypoxia Response Element Signaling Pathway (AID 914; active = well fitted activation curve with a large enough effect in the signal ratio, with a control signal flat, not every such curve was filed as active; inconclusive = small, poorly fitted or top-dose-only effect, or effect the other way, or a change in a side signal; the % refers to the signal ratio; also: potency is read from the fitted curve at half-maximal effect; as to activation: top concentration of the series differs between compounds; % of control where 0% means no effect); details: ME-180 (cervical carcinoma) HRE-bla reporter, beta-lactamase ratio, CoCl2, 17 h; activation: stronger effect = higher value
Outline: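 A beta-lactamase reporter under hypoxia response element control in ME-180 cells served as the system. Compound titrations plus EC50 CoCl2 ran 17 h at 37 degrees Celsius; AC50 values were fitted from %Activity.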

[7] = biological target: Cytochrome P450 2C19 (Homo sapiens) (UniProt P33261); assay: qHTS Assay for Inhibitors and Substrates of Cytochrome P450 2C19 (AID 899); also: potency is read from the fitted curve at half-maximal effect; nearly all actives have a fitted effect of over 60% in size
Chain of UniProt P33261 (P33261 whole entry, looked up): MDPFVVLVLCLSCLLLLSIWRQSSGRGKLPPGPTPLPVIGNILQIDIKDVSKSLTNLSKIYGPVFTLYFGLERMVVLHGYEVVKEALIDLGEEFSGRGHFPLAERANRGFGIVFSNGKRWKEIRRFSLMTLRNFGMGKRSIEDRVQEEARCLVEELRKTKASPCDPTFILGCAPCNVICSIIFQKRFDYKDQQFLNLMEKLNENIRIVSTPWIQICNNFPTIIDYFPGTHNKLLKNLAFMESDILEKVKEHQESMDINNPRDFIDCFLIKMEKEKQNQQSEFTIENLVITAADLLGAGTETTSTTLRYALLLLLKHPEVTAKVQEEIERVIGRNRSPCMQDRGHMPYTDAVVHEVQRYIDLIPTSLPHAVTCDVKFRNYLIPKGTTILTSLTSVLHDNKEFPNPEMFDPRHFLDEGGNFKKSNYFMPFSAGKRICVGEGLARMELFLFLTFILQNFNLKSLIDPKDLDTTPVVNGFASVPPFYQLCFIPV
Outline: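 In 50mM KPO4, the reaction held 5nM enzyme and KM-level (10uM) Luciferin-H EGE; it ran 60 min at 37C after NADPH regeneration and a 10 min compound preincubation. Luminescence values were scaled to 57uM ketoconazole as complete inhibition.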
Tags tell the direction and shape of the fitted curve or compound fluorescence and quenching.

O=[N+]([O-])c1ccc(C2=Nn3c(nnc3-c3ccc(Cl)cc3)SC2)o1
activity change, negative = inhibition [1]: inconclusive: -80.7% [inhibitor] [at 7.69 µM]
Potency [2]: inconclusive: 7.94 µM [inhibitor, single point]
Potency [3]: inconclusive: 5.01 µM [inhibitor, single point]

Cn1cccc1C(=O)N1CCC2(CCCN(Cc3ccncc3)C2)CC1
activity change, negative = inhibition [1]: inconclusive: -63.4% [inhibitor] [at 7.69 µM]
Potency [4]: inconclusive: 3.98 µM [inhibitor, full curve]

Cc1c(N2CCCC2)cc2c(c1NC(=O)c1ccccc1Cl)C(C)(C)CC2(C)C
activity change, negative = inhibition [1]: inactive: -10.2% [at 7.69 µM]
activity change, positive = activation [5]: inactive: -48.8% [at 11.4 µM]
Potency [3]: inconclusive: 3.16 µM [inhibitor, partial curve]

c1ccc2c[n+](Cc3ccnc4ccccc34)ccc2c1
activity change, negative = inhibition [1]: inconclusive: -69.7% [inhibitor] [at 7.69 µM]
Potency [4]: inconclusive: 1.26 µM [inhibitor, full curve]
Potency [6]: inconclusive: 158 nM [inhibitor, single point]

Cn1c(=O)c(-c2ccc(F)cc2)nc2cncnc21
activity change, negative = inhibition [1]: inactive: -1.33% [at 7.69 µM]
Potency [4]: inconclusive: 7.94 µM [inhibitor, partial curve]

c1ccc(SC(Sc2ccccc2)c2ccc3c(c2)OCO3)cc1
activity change, negative = inhibition [1]: inconclusive: -42.1% [inhibitor] [at 7.69 µM]
Potency [2]: active: 3.16 µM
Potency [3]: active: 3.16 µM

COc1ccc2c(c1)CN([C@H](C)[C@@H]1CC[C@@H]3[C@H]4CC[C@H]5C[C@@H](O)CC[C@@]5(C)[C@H]4CC[C@]31C)CO2
activity change, negative = inhibition [1]: inconclusive: -74.2% [inhibitor] [at 7.69 µM]
Potency [2]: inconclusive: 7.94 µM [inhibitor, single point]
activation [6]: inactive: 15.9%

CSc1nc2cc(S(=O)(=O)N3CCCCC3)ccc2s1
activity change, negative = inhibition [1]: inactive: -0.492% [at 7.69 µM]
Potency [5]: inconclusive: 3.16 µM [activator, single point]
activation [6]: inconclusive: -27.1%

N#Cc1ccc(CN2CCCC3(CCN(C(=O)c4ccncc4)CC3)C2)cc1
activity change, negative = inhibition [1]: inconclusive: -73.9% [inhibitor] [at 7.69 µM]
Potency [4]: inconclusive: 1.58 µM [inhibitor, full curve]

CN(C)CCCn1c2ccccc2c2cnccc21
activity change, negative = inhibition [1]: inactive: 2.32% [at 7.69 µM]
Potency [3]: inconclusive: 3.98 µM [inhibitor, single point]

Cc1c2cc[n+](CCN3CCCCC3)cc2c(C)c2c1[nH]c1ccc(O)cc12
activity change, negative = inhibition [1]: inconclusive: -58.2% [inhibitor] [at 7.69 µM]
Potency [3]: inconclusive: 5.01 µM [inhibitor, partial curve]

Cc1cc(C)cc(C(=N)c2ccccc2Cc2cccc3ccccc23)c1
activity change, negative = inhibition [1]: inconclusive: -42.5% [inhibitor] [at 7.69 µM]
Potency [4]: inconclusive: 2.51 µM [inhibitor, partial curve]

CN1CCc2ccccc2[C@@H]1Cc1ccccc1NC(=O)c1sc2ccccc2c1Cl
activity change, negative = inhibition [1]: inconclusive: -31.3% [inhibitor] [at 7.69 µM]
Potency [2]: inconclusive: 3.16 µM [inhibitor, partial curve]
activation [6]: inconclusive: -13.8%

CN(C)CC(C)(C)CN1c2ccccc2Sc2ccccc21
activity change, negative = inhibition [1]: inconclusive: -72.7% [inhibitor] [at 7.69 µM]
Potency [4]: inconclusive: 5.01 µM [inhibitor, partial curve]
Potency [7]: inconclusive: 2 µM [inhibitor, partial curve]

CN(C)c1ccc(-c2nc(NCCc3cnc[nH]3)c3ccccc3n2)cc1
activity change, negative = inhibition [1]: inconclusive: -67.8% [inhibitor] [at 7.69 µM]
Potency [2]: inconclusive: 0.794 µM [inhibitor, partial curve]
Potency [6]: inconclusive: 3160 nM [side channel, rising, single point]

Nc1nc(SCCc2ccccc2)c2[nH]cnc2n1
activity change, negative = inhibition [1]: inactive: 15.6% [at 7.69 µM]
Potency [2]: inconclusive: 3.98 µM [inhibitor, partial curve]
Potency [3]: inconclusive: 3.98 µM [inhibitor, partial curve]
Potency [6]: inconclusive: 100 nM [inhibitor, full curve]

Cc1ccc(C2=Nc3ccccc3S[C@@H](c3cccc([N+](=O)[O-])c3)C2)cc1
activity change, negative = inhibition [1]: inconclusive: -38.1% [inhibitor] [at 7.69 µM]
Potency [2]: inconclusive: 3.98 µM [inhibitor, single point]
Potency [6]: inconclusive: 2000 nM [inhibitor, partial curve]
